The supplement of paper PMC10369915
The other results are listed elsewhere or left out. No stated cut-off is given here; in the data, active = 3.2 or more and inactive = the rest. Most of these values are background signal.

How the values were obtained:
Test in all cases: enrichment score (SH2-bound / input frequency) (ratio); bacterial display of known human phosphotyrosine sites (pTyr-Var adds point mutants) read by sequencing; higher = stronger binding; tyrosines were phosphorylated by kinases first
Settings in all cases: peptide library: pTyr-Var
SHP2 C-SH2 domain E139D = target: SHP2 C-SH2 domain E139D
[1] = target: SHP2 C-SH2 domain wild-type
SHP2 N-SH2 domain L43F = target: SHP2 N-SH2 domain L43F
SHP2 N-SH2 domain T42A = target: SHP2 N-SH2 domain T42A
SHP2 N-SH2 domain T52S = target: SHP2 N-SH2 domain T52S
[2] = target: SHP2 N-SH2 domain wild-type

Measured: enrichment score
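Further: displayed peptides selected on beads carrying the immobilized SH2 domain, with library peptides lacking any tyrosine serving as negative controls.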

B1: ZNF24_Y335 (peptide)
chain: TGEKPYECVQC
inactive: SHP2 C-SH2 domain E139D 0.663 | [1] 0.51 | SHP2 N-SH2 domain L43F 0.731 | SHP2 N-SH2 domain T42A 0.72 | SHP2 N-SH2 domain T52S 0.704 | [2] 0.648

B2: ZNF100_Y6_M8V (peptide)
chain: MDDPRYGVCPL
inactive: SHP2 C-SH2 domain E139D 0.696 | [1] 0.776 | SHP2 N-SH2 domain L43F 0.859 | SHP2 N-SH2 domain T42A 0.611 | SHP2 N-SH2 domain T52S 0.671 | [2] 0.696

B3: ZFYVE16_Y36 (peptide)
chain: DVQNAYDSNHC
inactive: SHP2 C-SH2 domain E139D 0.844 | [1] 0.913 | SHP2 N-SH2 domain L43F 0.648 | SHP2 N-SH2 domain T42A 0.564 | SHP2 N-SH2 domain T52S 0.688 | [2] 0.685

B4: ZAP70_Y525_W523L (peptide)
chain: SDVLSYGVTMW
inactive: SHP2 C-SH2 domain E139D 0.954 | [1] 0.805 | SHP2 N-SH2 domain L43F 0.963 | SHP2 N-SH2 domain T42A 0.61 | SHP2 N-SH2 domain T52S 0.985 | [2] 0.781

B5: YWHAG_Y20 (peptide)
chain: EQAERYDDMAA
inactive: SHP2 C-SH2 domain E139D 0.477 | [1] 0.35 | SHP2 N-SH2 domain L43F 0.307 | SHP2 N-SH2 domain T42A 0.459 | SHP2 N-SH2 domain T52S 0.422 | [2] 0.569

B6: YWHAZ_Y149_S145L (peptide)
chain: QLQQAYQEAFE
inactive: SHP2 C-SH2 domain E139D 1.2 | [1] 1.08 | SHP2 N-SH2 domain L43F 1.65 | SHP2 N-SH2 domain T42A 1.54 | SHP2 N-SH2 domain T52S 0.968 | [2] 1.51

B7: ZNF236_Y644_S643G (peptide)
chain: QFFQGYFNNNF
inactive: SHP2 C-SH2 domain E139D 2.7 | [1] 2.51 | SHP2 N-SH2 domain L43F 1.96 | SHP2 N-SH2 domain T42A 2.05 | SHP2 N-SH2 domain T52S 3.09 | [2] 2.11

B8: ZDHHC23_Y127_YF (peptide)
chain: VLALWYFFLTH
active: SHP2 C-SH2 domain E139D 3.48 | [1] 3.39 | [2] 3.44
inactive: SHP2 N-SH2 domain L43F 2.91 | SHP2 N-SH2 domain T42A 2.94 | SHP2 N-SH2 domain T52S 2.86

B9: ZMYM2_Y1033_V1028I (peptide)
chain: IFGEEYEEQPR
inactive: SHP2 C-SH2 domain E139D 0.672 | [1] 0.566 | SHP2 N-SH2 domain L43F 0.702 | SHP2 N-SH2 domain T42A 0.673 | SHP2 N-SH2 domain T52S 0.736 | [2] 0.721

B10: ZG16B_Y136 (peptide)
chain: RGMVMYTSKDR
inactive: SHP2 C-SH2 domain E139D 0.763 | [1] 0.918 | SHP2 N-SH2 domain L43F 1.02 | SHP2 N-SH2 domain T42A 0.78 | SHP2 N-SH2 domain T52S 0.774 | [2] 0.871

B11: YWHAG_Y133_Y133S_YF (peptide)
chain: GDFFRSLAEVA
inactive: SHP2 C-SH2 domain E139D 0.713 | [1] 0.633 | SHP2 N-SH2 domain L43F 0.744 | SHP2 N-SH2 domain T42A 0.583 | SHP2 N-SH2 domain T52S 0.629 | [2] 0.779

B12: ZBTB46_Y14_T11A (peptide)
chain: EIASHYRHLLR
inactive: SHP2 C-SH2 domain E139D 0.713 | [1] 0.648 | SHP2 N-SH2 domain L43F 0.774 | SHP2 N-SH2 domain T42A 0.62 | SHP2 N-SH2 domain T52S 0.634 | [2] 0.911

B13: ZNF347_Y261_N264D (peptide)
chain: NWGSPYKSDGC
inactive: SHP2 C-SH2 domain E139D 0.9 | [1] 0.849 | SHP2 N-SH2 domain L43F 0.733 | SHP2 N-SH2 domain T42A 0.687 | SHP2 N-SH2 domain T52S 0.581 | [2] 0.791

B14: ZC3H18_Y371_YF (peptide)
chain: PFADPYFDFEI
inactive: SHP2 C-SH2 domain E139D 0.603 | [1] 0.621 | SHP2 N-SH2 domain L43F 0.614 | SHP2 N-SH2 domain T42A 0.523 | SHP2 N-SH2 domain T52S 0.628 | [2] 0.669

B15: YWHAG_Y133_YF (peptide)
chain: GDFFRYLAEVA
inactive: SHP2 C-SH2 domain E139D 0.881 | [1] 0.861 | SHP2 N-SH2 domain L43F 0.827 | SHP2 N-SH2 domain T42A 0.814 | SHP2 N-SH2 domain T52S 0.956 | [2] 0.909

B16: YWHAG_Y49_K50Q (peptide)
chain: LLSVAYQNVVG
inactive: SHP2 C-SH2 domain E139D 1.78 | [1] 1.77 | SHP2 N-SH2 domain L43F 1.96 | SHP2 N-SH2 domain T52S 2.3 | [2] 1.77
active: SHP2 N-SH2 domain T42A 4.06

B17: ZAP70_Y493_A495V_YF (peptide)
chain: ADDSFYTVRSA
inactive: SHP2 C-SH2 domain E139D 0.588 | [1] 0.509 | SHP2 N-SH2 domain L43F 0.732 | SHP2 N-SH2 domain T42A 0.532 | SHP2 N-SH2 domain T52S 0.625 | [2] 0.81

B18: ZAP70_Y493_A495V (peptide)
chain: ADDSYYTVRSA
inactive: SHP2 C-SH2 domain E139D 0.579 | [1] 0.609 | SHP2 N-SH2 domain L43F 0.612 | SHP2 N-SH2 domain T42A 0.582 | SHP2 N-SH2 domain T52S 0.626 | [2] 0.757

B19: ZNF24_Y335_G331W (peptide)
chain: TWEKPYECVQC
inactive: SHP2 C-SH2 domain E139D 2.28 | [1] 1.94 | SHP2 N-SH2 domain L43F 2.1 | SHP2 N-SH2 domain T42A 2.29 | SHP2 N-SH2 domain T52S 2 | [2] 1.89

B20: ZNF347_Y261 (peptide)
chain: NWGSPYKSNGC
inactive: SHP2 C-SH2 domain E139D 0.86 | [1] 0.737 | SHP2 N-SH2 domain L43F 0.733 | SHP2 N-SH2 domain T42A 0.649 | SHP2 N-SH2 domain T52S 0.634 | [2] 0.929

B21: ZAP70_Y451 (peptide)
chain: SMGMKYLEEKN
inactive: SHP2 C-SH2 domain E139D 0.849 | [1] 0.785 | SHP2 N-SH2 domain L43F 0.944 | SHP2 N-SH2 domain T42A 0.79 | SHP2 N-SH2 domain T52S 0.798 | [2] 0.79

B22: ZBP1_Y165_R166H (peptide)
chain: KAWTIYHPEDS
inactive: SHP2 C-SH2 domain E139D 1.27 | [1] 0.995 | SHP2 N-SH2 domain L43F 0.983 | SHP2 N-SH2 domain T42A 0.97 | SHP2 N-SH2 domain T52S 1.12 | [2] 1.12

B23: ZG16_Y30 (peptide)
chain: SYSGEYGGGGG
inactive: SHP2 C-SH2 domain E139D 0.542 | [1] 0.43 | SHP2 N-SH2 domain L43F 0.691 | SHP2 N-SH2 domain T42A 0.379 | SHP2 N-SH2 domain T52S 0.629 | [2] 0.629

B24: ZBP1_Y165 (peptide)
chain: KAWTIYRPEDS
inactive: SHP2 C-SH2 domain E139D 0.74 | [1] 0.5 | SHP2 N-SH2 domain L43F 0.644 | SHP2 N-SH2 domain T42A 0.618 | SHP2 N-SH2 domain T52S 0.667 | [2] 0.568

B25: ZAP70_Y493 (peptide)
chain: ADDSYYTARSA
inactive: SHP2 C-SH2 domain E139D 0.284 | [1] 0.344 | SHP2 N-SH2 domain L43F 0.47 | SHP2 N-SH2 domain T42A 0.401 | SHP2 N-SH2 domain T52S 0.558 | [2] 0.4

B26: YWHAG_Y131_YF (peptide)
chain: MKGDFYRFLAE
inactive: SHP2 C-SH2 domain E139D 0.95 | [1] 0.75 | SHP2 N-SH2 domain L43F 0.522 | SHP2 N-SH2 domain T42A 0.562 | SHP2 N-SH2 domain T52S 0.789 | [2] 0.855

B27: ZAP70_Y451_G448E (peptide)
chain: SMEMKYLEEKN
inactive: SHP2 C-SH2 domain E139D 0.867 | [1] 0.923 | SHP2 N-SH2 domain L43F 1.08 | SHP2 N-SH2 domain T42A 0.862 | SHP2 N-SH2 domain T52S 0.843 | [2] 0.877

B28: ZFP69_Y109 (peptide)
chain: VMLENYSNLVS
inactive: SHP2 C-SH2 domain E139D 1.08 | [1] 0.852 | SHP2 N-SH2 domain L43F 0.994 | SHP2 N-SH2 domain T42A 0.857 | SHP2 N-SH2 domain T52S 1.15 | [2] 1.04

B29: ZIM2_Y411 (peptide)
chain: HSQEDYFECFQ
inactive: SHP2 C-SH2 domain E139D 0.815 | [1] 0.737 | SHP2 N-SH2 domain L43F 0.907 | SHP2 N-SH2 domain T42A 0.546 | SHP2 N-SH2 domain T52S 0.618 | [2] 1.09

B30: ZAP70_Y178 (peptide)
chain: AERKLYSGAQT
inactive: SHP2 C-SH2 domain E139D 0.464 | [1] 0.488 | SHP2 N-SH2 domain L43F 0.438 | SHP2 N-SH2 domain T42A 0.527 | SHP2 N-SH2 domain T52S 0.386 | [2] 0.614

B31: ZIM2_Y411_Q408R (peptide)
chain: HSREDYFECFQ
inactive: SHP2 C-SH2 domain E139D 0.949 | [1] 1.03 | SHP2 N-SH2 domain L43F 0.743 | SHP2 N-SH2 domain T42A 0.736 | SHP2 N-SH2 domain T52S 0.667 | [2] 0.968

B32: ZAP70_Y492 (peptide)
chain: GADDSYYTARS
inactive: SHP2 C-SH2 domain E139D 0.435 | [1] 0.479 | SHP2 N-SH2 domain L43F 0.526 | SHP2 N-SH2 domain T42A 0.483 | SHP2 N-SH2 domain T52S 0.437 | [2] 0.594

B33: ZC3H18_Y372_A368T_YF (peptide)
chain: FTDPFYDFEIE
inactive: SHP2 C-SH2 domain E139D 0.845 | [1] 0.506 | SHP2 N-SH2 domain L43F 0.654 | SHP2 N-SH2 domain T42A 0.635 | SHP2 N-SH2 domain T52S 0.583 | [2] 0.65

B34: YWHAG_Y133_Y133S (peptide)
chain: GDYYRSLAEVA
inactive: SHP2 C-SH2 domain E139D 0.737 | [1] 0.73 | SHP2 N-SH2 domain L43F 0.718 | SHP2 N-SH2 domain T42A 0.581 | SHP2 N-SH2 domain T52S 0.812 | [2] 0.793

B35: ZAP70_Y492_YF (peptide)
chain: GADDSYFTARS
inactive: SHP2 C-SH2 domain E139D 0.443 | [1] 0.266 | SHP2 N-SH2 domain L43F 0.442 | SHP2 N-SH2 domain T42A 0.3 | SHP2 N-SH2 domain T52S 0.373 | [2] 0.527

B36: ZNF281_Y531_I527T (peptide)
chain: QTSSNYDDAMQ
inactive: SHP2 C-SH2 domain E139D 0.314 | [1] 0.19 | SHP2 N-SH2 domain L43F 0.326 | SHP2 N-SH2 domain T42A 0.233 | SHP2 N-SH2 domain T52S 0.343 | [2] 0.386

B37: ZAP70_Y569_C564R (peptide)
chain: RPPELYALMSD
inactive: SHP2 C-SH2 domain E139D 0.883 | [1] 0.911 | SHP2 N-SH2 domain L43F 0.828 | SHP2 N-SH2 domain T42A 0.691 | SHP2 N-SH2 domain T52S 0.827 | [2] 0.732
